B1: CPEB3 Ribozyme (parent)
chain: UAACAGGGGGCCACAGCAGAAGCGUUCACGUCGCAGCCCCUGUCAGAUUCUGGUGAAUCUGCGAAUUCUGCUGUAUAUCUC

The source gives no read counts; variants with many changes may rest on few reads.

The variants in this data set derive from B1. The data set can be described thus: self-cleavage, relative activity (ratio to wild type); higher = more cleavage; in vitro, sequencing. Summed up:
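Libraries of CPEB3 self-cleaving ribozyme mutants came from rounds of error-prone PCR and carried barcodes, which DNA sequencing matched to variants. In vitro transcription used T7 RNA polymerase at 37°C for 5 hours, with a further 15 min in DNase I before EDTA stopped the reaction; the ribozymes cleaved during both steps. The RNA was reverse transcribed with template switching and sequenced on Illumina. Relative activity is the cleaved/total read fraction of a variant divided by that of the unmutated ribozyme, averaged over three batches with at least 5 reads.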
With UAACAGGGGGCCACAGCAGAAGCGUUCACGUCGCAGCCCCUGUCAGAUUCUGGUGAAUCUGCGGAUUCCGCUGUAUGUCUC, the self-cleavage was 0.41.
In the case of UAACAGGGGGCCACAGCAGAAGCGUUCACGUCGCAGCCCCUGUCAGAUUCUGGUGAAUCUGCGAGUUCAGCGGUAUAUCUC, the self-cleavage amounted to 0.2.
The same measure for UAACAGGGGGCCACAGCAGAAGCGUUCACGUCGCAGCCCCUGUCAGAUUCUGGUGAAUCUGCGGGUACUGCUGUAUAUCUC: 0.15; for UAACAGGGGGCCACAGCAGAAGCGUUCACGUCGCAGCCCCUGUCAGAUUCUGGUGAAUCUGCGGAUUCUGCUGUAUACAUC: 0.76; for UAACAGGGGGCCACAGCAGAAGCGUUCACGUCGCAGCCCCUGUCAGAUUCUGGUGAAUCUGCGGGUUCCGCUGUAUAUCUC: 0.11.
Under UAACAGGGGGCCACAGCAGAAGCGUUCACGUCGCAGCCCCUGUCAGAUUCUGGUGAAUCUGCACAUCCUGCAGUAUAUCUC stands 0.22; under UAACAGGGGGCCACAGCAGAAGCGUUCACGUCGCAGCCCCUGUCAGAUUCUGGUGAAUCUGUGAAUUCUGCCGUAUACCUC, 0.23.
Under UAACAGGGGGCCACAGCAGAAGCGUUCACGUCGCAGCCCCUGUCAGAUUCUGGUGAAUCUGCGGAUUCAGCCGUAUAUCUC stands 0.38.
UAACAGGGGGCCACAGCAGAAGCGUUCACGUCGCAGCCCCUGUCAGAUUCUGGUGAAUCUGCGAGUCCUGCAGUGUAUCUC: the self-cleavage came out at 0.2.
The same measure for UAACAGGGGGCCACAGCAGAAGCGUUCACGUCGCAGCCCCUGUCAGAUUCUGGUGAAUCUGCGUAUUCUGCUGUAUAUCCA: 0.27.
Under UAACAGGGGGCCACAGCAGAAGCGUUCACGUCGCAGCCCCUGUCAGAUUCUGGUGAAUCUGCGGAUUCUCCUGUACAUCUC stands 0.2; under UAACAGGGGGCCACAGCAGAAGCGUUCACGUCGCAGCCCCUGUCAGAUUCUGGUGAAUCUGCGGAUUCCGCUGAAUAUCUC, 0.3; under UAACAGGGGGCCACAGCAGAAGCGUUCACGUCGCAGCCCCUGUCAGAUUCUGGUGAAUCUGCAAAUUCUGCGGUAUACCUC, 1.07.
In the case of UAACAGGGGGCCACAGCAGAAGCGUUCACGUCGCAGCCCCUGUCAGAUUCUGGUGAAUCUGCGGAGUCUGCAGUAUAUCUC, the self-cleavage came out at 0.16.
Under UAACAGGGGGCCACAGCAGAAGCGUUCACGUCGCAGCCCCUGUCAGAUUCUGGUGAAUCUGCAAAUUCCGCUGUAUAUCAC stands 0.55; under UAACAGGGGGCCACAGCAGAAGCGUUCACGUCGCAGCCCCUGUCAGAUUCUGGUGAAUCUGCGAGAACUGCUGUAUAUCUC, 0.21.
Under UAACAGGGGGCCACAGCAGAAGCGUUCACGUCGCAGCCCCUGUCAGAUUCUGGUGAAUCUGCGGAUCCUGCCGUAUAUCUC stands 0.33; under UAACAGGGGGCCACAGCAGAAGCGUUCACGUCGCAGCCCCUGUCAGAUUCUGGUGAAUCUGCUAAUUCUGCCGUAUGUCUC, 1.23; under UAACAGGGGGCCACAGCAGAAGCGUUCACGUCGCAGCCCCUGUCAGAUUCUGGUGAAUCUGCGGAUGCUGCCGUGUAUCUC, 0.19.
The same measure for UAACAGGGGGCCACAGCAGAAGCGUUCACGUCGCAGCCCCUGUCAGAUUCUGGUGAAUCUGUGAAUCCUGCCGUAUAUCUC: 0.36.
As for UAACAGGGGGCCACAGCAGAAGCGUUCACGUCGCAGCCCCUGUCAGAUUCUGGUGAAUCGGUGAAUUCUGCUGUACAUCUC, the self-cleavage worked out at 0.79.
UAACAGGGGGCCACAGCAGAAGCGUUCACGUCGCAGCCCCUGUCAGAUUCUGGUGAAUCCGCGAAUUCUGCUGAAUAUCAC: the self-cleavage was found to be 0.93.
Under UAACAGGGGGCCACAGCAGAAGCGUUCACGUCGCAGCCCCUGUCAGAUUCUGGUGAAUCCGCGAAUUCUGCUGUAUACCAC stands 0.93.
UAACAGGGGGCCACAGCAGAAGCGUUCACGUCGCAGCCCCUGUCAGAUUCUGGUGAAUCUGGGAGUUCUGCCGUAUAUCUC: the self-cleavage stood at 0.39.
As for UAACAGGGGGCCACAGCAGAAGCGUUCACGUCGCAGCCCCUGUCAGAUUCUGGUGAAUCUGCGUGCUCUGCUGUAUAUCUC, the self-cleavage was found to be 0.18.
The same measure for UAACAGGGGGCCACAGCAGAAGCGUUCACGUCGCAGCCCCUGUCAGAUUCUGGUGAAUCUGUAAAUUCUGCAGUAUAUCUC: 0.27.
The same measure for UAACAGGGGGCCACAGCAGAAGCGUUCACGUCGCAGCCCCUGUCAGAUUCUGGUGAAUCUGCGUGUCCUGCUGUAUAUCUC: 0.36; for UAACAGGGGGCCACAGCAGAAGCGUUCACGUCGCAGCCCCUGUCAGAUUCUGGUGAAUCUGCUGAUUCUGCUGUUUAUCUC: 1.07.
Under UAACAGGGGGCCACAGCAGAAGCGUUCACGUCGCAGCCCCUGUCAGAUUCUGGUGAAUCUGCGGAUCCUGCUGUGUAUCUC stands 0.21; under UAACAGGGGGCCACAGCAGAAGCGUUCACGUCGCAGCCCCUGUCAGAUUCUGGUGAAUCCGCGAAUUCCGCUGUAUAUCCC, 0.49; under UAACAGGGGGCCACAGCAGAAGCGUUCACGUCGCAGCCCCUGUCAGAUUCUGGUGAAUCUGCGAGUUCUGCUGUAUGUCAC, 0.44.
Turning to UAACAGGGGGCCACAGCAGAAGCGUUCACGUCGCAGCCCCUGUCAGAUUCUGGUGAAUCUGCGAUCUCUGCGGUAUAUCUC, the self-cleavage was found to be 0.45.
Under UAACAGGGGGCCACAGCAGAAGCGUUCACGUCGCAGCCCCUGUCAGAUUCUGGUGAAUCUGCGCAUUCCGCAGUAUACCUC stands 0.22; under UAACAGGGGGCCACAGCAGAAGCGUUCACGUCGCAGCCCCUGUCAGAUUCUGGUGAAUCUCAGAAUUCUGCUGUAUAUCCC, 0.24; under UAACAGGGGGCCACAGCAGAAGCGUUCACGUCGCAGCCCCUGUCAGAUUCUGGUGAAUCUGCGUGUUCUGCUGUAUAUCCC, 0.19.
The same measure for UAACAGGGGGCCACAGCAGAAGCGUUCACGUCGCAGCCCCUGUCAGAUUCUGGUGAAUCUGCGAGUUCUGCCGCAUAUCUC: 0.75; for UAACAGGGGGCCACAGCAGAAGCGUUCACGUCGCAGCCCCUGUCAGAUUCUGGUGAAUCUGCGUAUUCAGCCGUAUACCUC: 0.26.
The same measure for UAACAGGGGGCCACAGCAGAAGCGUUCACGUCGCAGCCCCUGUCAGAUUCUGGUGAAUCUGCGGAUUCUGCUGUAUUUCCC: 0.85.
As for UAACAGGGGGCCACAGCAGAAGCGUUCACGUCGCAGCCCCUGUCAGAUUCUGGUGAAUCUGCGGAUCCUACUGUACAUCUC, the self-cleavage is 0.21.
The same measure for UAACAGGGGGCCACAGCAGAAGCGUUCACGUCGCAGCCCCUGUCAGAUUCUGGUGAAUCUCCAAAUUCUGCUGUGUAUCUC: 0.39.
The same measure for UAACAGGGGGCCACAGCAGAAGCGUUCACGUCGCAGCCCCUGUCAGAUUCUGGUGAAUCUGCGAGUCCUGCUGUAUAUCUU: 0.16.
The same measure for UAACAGGGGGCCACAGCAGAAGCGUUCACGUCGCAGCCCCUGUCAGAUUCUGGUGAAUCUGCGCACCCUGCUGUAUAUCUC: 0.23; for UAACAGGGGGCCACAGCAGAAGCGUUCACGUCGCAGCCCCUGUCAGAUUCUGGUGAAUCUGCGGAUUCUGCUGUAAAUCCC: 0.98.
As to UAACAGGGGGCCACAGCAGAAGCGUUCACGUCGCAGCCCCUGUCAGAUUCUGGUGAAUCUGCGUAUUCUACUGUAUAUCGC, the self-cleavage is 0.29.
The same measure for UAACAGGGGGCCACAGCAGAAGCGUUCACGUCGCAGCCCCUGUCAGAUUCUGGUGAAUCUGCGGAUUCUGCUGUAUACGCC: 0.97; for UAACAGGGGGCCACAGCAGAAGCGUUCACGUCGCAGCCCCUGUCAGAUUCUGGUGAAUCCGCGAAUUCUGCCGUAUACCUC: 0.69.
The same measure for UAACAGGGGGCCACAGCAGAAGCGUUCACGUCGCAGCCCCUGUCAGAUUCUGGUGAAUCUGCGGAUUCUGCUGUAUAUACC: 1.07; for UAACAGGGGGCCACAGCAGAAGCGUUCACGUCGCAGCCCCUGUCAGAUUCUGGUGAAUCUGCGGAUUCUGCUGUACAUUUC: 1.15.
The same measure for UAACAGGGGGCCACAGCAGAAGCGUUCACGUCGCAGCCCCUGUCAGAUUCUGGUGAAUCUGCGACUUGUGCCGUAUAUCUC: 0.14.
UAACAGGGGGCCACAGCAGAAGCGUUCACGUCGCAGCCCCUGUCAGAUUCUGGUGAAUCUGCGCAUUCCCCUGUAUAUCUC: the self-cleavage was 0.24.
The same measure for UAACAGGGGGCCACAGCAGAAGCGUUCACGUCGCAGCCCCUGUCAGAUUCUGGUGAAUCUGCGGAUUUUGCUGUAUACCCC: 0.37; for UAACAGGGGGCCACAGCAGAAGCGUUCACGUCGCAGCCCCUGUCAGAUUCUGGUGAAUCCGCGAAUUCUGCUGUACAUCCC: 0.87; for UAACAGGGGGCCACAGCAGAAGCGUUCACGUCGCAGCCCCUGUCAGAUUCUGGUGAAUCUGCAAUUUCUGCUGUAUAUCCC: 0.96.
Under UAACAGGGGGCCACAGCAGAAGCGUUCACGUCGCAGCCCCUGUCAGAUUCUGGUGAAUCUGCGAGUCCUGCUGUAUCUCUC stands 0.19.
The same measure for UAACAGGGGGCCACAGCAGAAGCGUUCACGUCGCAGCCCCUGUCAGAUUCUGGUGAAUCUGCGGAUUCUGCAGUAAAUCUC: 0.53.
For UAACAGGGGGCCACAGCAGAAGCGUUCACGUCGCAGCCCCUGUCAGAUUCUGGUGAAUCUGCGGAUUCAGCUGCAUAUCUC, the self-cleavage amounted to 0.31.
Under UAACAGGGGGCCACAGCAGAAGCGUUCACGUCGCAGCCCCUGUCAGAUUCUGGUGAAUCUGCGAGUUCCGCAGUAUAUCUC stands 0.54.
Under UAACAGGGGGCCACAGCAGAAGCGUUCACGUCGCAGCCCCUGUCAGAUUCUGGUGAAUCUGCGGAUUCUGCCGCAUAUCUC stands 1.02; under UAACAGGGGGCCACAGCAGAAGCGUUCACGUCGCAGCCCCUGUCAGAUUCUGGUGAAUCUGCCAACACUGCUGUAUAUCUC, 0.21; under UAACAGGGGGCCACAGCAGAAGCGUUCACGUCGCAGCCCCUGUCAGAUUCUGGUGAAUCUGGGAAUUCGGCUGUAUACCUC, 0.24.
Under UAACAGGGGGCCACAGCAGAAGCGUUCACGUCGCAGCCCCUGUCAGAUUCUGGUGAAUCUGCAAAUUCUGCAGUAAAUCUC stands 0.53; under UAACAGGGGGCCACAGCAGAAGCGUUCACGUCGCAGCCCCUGUCAGAUUCUGGUGAAUCUGCUAAAUCUGCUAUAUAUCUC, 0.84.
On to UAACAGGGGGCCACAGCAGAAGCGUUCACGUCGCAGCCCCUGUCAGAUUCUGGUGAAUCUGCGUUUUCUGCUGUACAUCUC, for which the self-cleavage turned out to be 0.13.
Under UAACAGGGGGCCACAGCAGAAGCGUUCACGUCGCAGCCCCUGUCAGAUUCUGGUGAAUCUGCGGAUUCUGGUGUACAUCUC stands 0.28; under UAACAGGGGGCCACAGCAGAAGCGUUCACGUCGCAGCCCCUGUCAGAUUCUGGUGAAUCUGCGGAUUCUGCUGAAUAGCUC, 1.16; under UAACAGGGGGCCACAGCAGAAGCGUUCACGUCGCAGCCCCUGUCAGAUUCUGGUGAAUCUACGAGUUCUGCUGUACAUCUC, 0.29.
UAACAGGGGGCCACAGCAGAAGCGUUCACGUCGCAGCCCCUGUCAGAUUCUGGUGAAUCUGCGGAUUCUGCUGUAAGUCUC: the self-cleavage came out at 0.73.
As for UAACAGGGGGCCACAGCAGAAGCGUUCACGUCGCAGCCCCUGUCAGAUUCUGGUGAAUCUGUGGAUUCUGCUGUACAUCUC, the self-cleavage worked out at 0.19.

(Values after the RNAGym collection of RNA variant scans (doi:10.1093/nar/gkz1192).)
